Hit rate of the full screen: of about 410,000 compounds, about 490 (0.12%) were called active. This list was built around the results that the source calls inconclusive (neither active nor inactive); the mix of calls is not that of the screen. Calls follow the shape of the dose curve; as a rule, active = well fitted inhibition curve with a large enough effect; inconclusive = small, poorly fitted or top-dose-only effect; inactive = flat fitted curve, though single readings scatter. Potencies of inconclusive entries are doubtful fits and often do not repeat.
biological target: pyruvate kinase (Trypanosoma brucei) (UniProt Q57TT1); assay: qHTS of Trypanosoma Brucei Inhibitors; details: TbPYK enzyme, Kinase-Glo Plus ATP luminescence, 45 min; series mostly up to 76.8 µM; also: nearly all actives have a fitted effect of over 50% in size
Method in brief: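 Glycolytic pyruvate kinase of T. brucei was incubated with substrate, test compound and 130 uM ADP for 45 minutes at room temperature. Luminescent Kinase-Glo Plus signal was measured after 10 minutes.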
Potency is read from the fitted curve at half-maximal effect; tags tell the direction and shape of the fitted curve.

Question: Which Potency does the source give for `COc1ccccc1NC(=O)CN1CCN(CC(=O)Nc2ccccc2F)CC1` here?
Answer: The Potency was “inactive”.

Question: For `CC1(C)Cc2c(c(-c3ccco3)nc3sc4c(NCCCO)ncnc4c23)CO1`, which Potency is on record?
Answer: Its Potency is inconclusive: 28.2 µM [inhibitor, single point].

Question: For `Cc1ccc(S(=O)(=O)NNc2ccccc2)c(C)c1`, which Potency is on record?
Answer: The Potency was inconclusive: 15.8 µM [inhibitor, partial curve, poor fit].

Question: For `Cc1cccc(NC(=O)CSc2nc3c(oc4ccccc43)c(=O)n2-c2ccccc2)c1C`, which Potency is on record?
Answer: Its Potency is “inactive”.

Question: With `O=C(Cn1sc2ccccc2c1=O)Nc1ccc(Cl)cc1` as the compound, how does the Potency read?
Answer: Its Potency is inconclusive: 12.6 µM [inhibitor, partial curve, poor fit].

Question: With `O=Nc1c2cc(-c3ccccc3)[nH]nc-2c2ccccc12` as the compound, how does the Potency read?
Answer: The Potency was inconclusive: 31.6 µM [inhibitor, partial curve, poor fit].

Question: `C/C(=N\NC(=O)c1ccc(O)cc1)c1ccc2c(c1)OCCO2` was tested. Which Potency did it give?
Answer: The Potency was “inactive”.

Question: How did the Potency turn out when `O=c1cc(O)n(-c2ccc(F)cc2)c(=S)[nH]1` was run?
Answer: The Potency was inconclusive: 12.6 µM [inhibitor, partial curve].

Question: Which Potency does the source give for `Cc1c(C(=O)N2CCN(C(=O)c3ccco3)CC2)sc2nc(-c3ccc(F)cc3)cn12` here?
Answer: The Potency was “inactive”.

Question: How did the Potency turn out when `S=c1[nH]nc(-c2ccco2)n1/N=C/c1ccc(Cl)c(Cl)c1` was run?
Answer: Its Potency is inconclusive: 15.8 µM [inhibitor, partial curve].

Question: `CCOC(=O)c1[nH]c2ccc(OC)cc2c1NC(=O)c1cccc(OC)c1` was tested. Which Potency did it give?
Answer: Its Potency is “inactive”.

Question: For `COc1ncccc1-c1nnn(-c2ccccc2)n1`, which Potency is on record?
Answer: Its Potency is inconclusive: 35.5 µM [inhibitor, single point].

Question: With `CC(=O)N1CC[n+]2c(-c3ccc([N+](=O)[O-])cc3)csc21` as the compound, how does the Potency read?
Answer: Its Potency is inconclusive: 2.24 µM [inhibitor, full curve, poor fit].

Question: For `CCCN(CC(=O)Nc1ccccc1C)C(=O)C1CC(=O)N(Cc2ccccc2)C1` (centres undefined), which Potency is on record?
Answer: The Potency was “inactive”.

Question: `C=CCNC(=O)Nc1ccc(F)c(Cl)c1` was tested. Which Potency did it give?
Answer: The Potency was “inactive”.

Question: Which Potency does the source give for `CN(CC(=O)Nc1ccc2c(c1)CCC2)CC(=O)Nc1ccccc1Br` here?
Answer: The Potency was inconclusive: 35.5 µM [inhibitor, single point].

Question: `CCOC(=O)CSc1cc(C)c(C#N)c2nc3ccccc3n12` was tested. Which Potency did it give?
Answer: Its Potency is “inactive”.

Question: For `COc1nnc(OC)c2ccccc12`, which Potency is on record?
Answer: The Potency was “inactive”.

Question: For `CC1(C(=O)Nc2cccc(C(F)(F)F)c2)Cc2ccccc2C(=O)O1` (centres undefined), which Potency is on record?
Answer: Its Potency is “inactive”.

Question: How did the Potency turn out when `COCC(C)OC(=O)/C(C#N)=C\c1coc2ccc(C)cc2c1=O` (centres undefined) was run?
Answer: The Potency was inconclusive: 35.5 µM [inhibitor, single point].

Question: Which Potency does the source give for `O=C(NC1CCCC1)c1ccc2nc(-c3ccco3)c(-c3ccco3)nc2c1` here?
Answer: Its Potency is inconclusive: 31.6 µM [inhibitor, partial curve, poor fit].

Question: For `CCN(CC)c1ccc(NC(=O)COc2ccccc2C)cc1S(=O)(=O)Nc1ccccc1OC`, which Potency is on record?
Answer: The Potency was inconclusive: 5.62 µM [inhibitor, partial curve, poor fit].

Question: How did the Potency turn out when `Nc1ccc(C(=O)N2CCCC2)cc1CS(=O)(=O)c1ccc(Cl)cc1` was run?
Answer: Its Potency is “inactive”.

Question: How did the Potency turn out when `CCCCn1c(-c2csc3ccccc23)n[nH]c1=S` was run?
Answer: The Potency was active: 15.8 µM.

Question: With `OC(c1cccc(F)c1)c1ncc(-c2ccc(Oc3ccccc3)cc2)[nH]1` (centres undefined) as the compound, how does the Potency read?
Answer: Its Potency is “inactive”.

Question: `COc1ccc(CN2C(=O)NC(=O)/C(=C/c3ccc([N+](=O)[O-])s3)C2=O)cc1` was tested. Which Potency did it give?
Answer: Its Potency is inconclusive: 28.2 µM [inhibitor, partial curve, poor fit].

Question: For `Cc1cccc(NC(=O)c2c(C)nc3ccccn23)c1`, which Potency is on record?
Answer: The Potency was “inactive”.

Question: How did the Potency turn out when `COC(=O)c1ccc(NCc2cc(O)ccc2O)cc1` was run?
Answer: The Potency was inconclusive: 44.7 µM [inhibitor, partial curve, poor fit].

Question: How did the Potency turn out when `CN(C)S(=O)(=O)c1cccc(NC(=O)c2cccc(S(=O)(=O)N3CCc4ccccc43)c2)c1` was run?
Answer: The Potency was “inactive”.

Question: How did the Potency turn out when `CC(=O)NCC(=O)OCC(=O)c1ccc2ccccc2c1` was run?
Answer: Its Potency is “inactive”.

Question: With `O=C(NCC1CC1)NC(=O)c1c(F)cccc1Cl` as the compound, how does the Potency read?
Answer: The Potency was “inactive”.

Question: Which Potency does the source give for `c1ccc(-c2noc(-c3cccs3)n2)nc1` here?
Answer: Its Potency is inconclusive: 28.2 µM [inhibitor, partial curve].

Question: Which Potency does the source give for `CCOC(=O)c1ccc(N2C(=O)CC(N3CCC(O)(c4ccc(Cl)cc4)CC3)C2=O)cc1` (centres undefined) here?
Answer: The Potency was “inactive”.

Question: With `CN1CCN(C(=O)C2CCN(S(=O)(=O)c3ccc4c(c3)oc(=O)n4C)CC2)CC1` as the compound, how does the Potency read?
Answer: Its Potency is “inactive”.

Question: Which Potency does the source give for `COc1ccc(N2C(=O)C3C(C2=O)C(C(=O)c2ccc(Cl)cc2)N2CCCC32)cc1` (centres undefined) here?
Answer: Its Potency is inconclusive: 31.6 µM [inhibitor, partial curve, poor fit].

Question: With `COc1ccc(/C=C/c2nc3ccccc3n2C)cc1` as the compound, how does the Potency read?
Answer: The Potency was inconclusive: 12.6 µM [inhibitor, partial curve, poor fit].

Question: How did the Potency turn out when `Cc1ccc(C(=O)ONc2ccc(N=O)cc2)cc1` was run?
Answer: Its Potency is inconclusive: 25.1 µM [inhibitor, single point].

Question: `Cc1noc(C)c1CSc1nc2ccccc2s1` was tested. Which Potency did it give?
Answer: Its Potency is “inactive”.

Question: For `Cc1cc(C)c2c(c1)-c1c(ssc1=S)C(C)(C)N2C(=O)CSc1nncn1C`, which Potency is on record?
Answer: Its Potency is inconclusive: 12.6 µM [inhibitor, partial curve, poor fit].

Question: For `Cn1c(O)c(N=NC(=O)c2ccccc2O)c2ccccc21`, which Potency is on record?
Answer: Its Potency is inconclusive: 39.8 µM [inhibitor, partial curve, poor fit].

Question: Which Potency does the source give for `S=c1[nH]nc(C2(c3ccccc3)CCCC2)o1` here?
Answer: The Potency was inconclusive: 15.8 µM [inhibitor, partial curve].

Question: `CCn1c(-c2cc(Cl)ccc2OC)n[nH]c1=S` was tested. Which Potency did it give?
Answer: The Potency was active: 11.2 µM.

Question: For `COc1ccccc1CCNC(=O)NC1CCCCC1`, which Potency is on record?
Answer: Its Potency is “inactive”.

Question: With `CCOC(=O)C1=C(O)c2ccccc2C(=O)/C1=C\c1ccc(C)cc1` as the compound, how does the Potency read?
Answer: Its Potency is inconclusive: 15.8 µM [inhibitor, partial curve, poor fit].

Question: With `Cc1ccc(-c2n[nH]c(=S)n2/N=C/c2ccc(C(=O)O)cc2)cc1` as the compound, how does the Potency read?
Answer: Its Potency is inconclusive: 3.55 µM [inhibitor, partial curve, poor fit].

Question: For `O=C(Nc1ccc(Br)cn1)c1coc(=O)c(Br)c1`, which Potency is on record?
Answer: Its Potency is inconclusive: 31.6 µM [inhibitor, partial curve].

Question: For `CN(C)c1ccc(/C=C/c2nc3ccccc3c(=O)[nH]2)cc1`, which Potency is on record?
Answer: Its Potency is “inactive”.

Question: `COc1ccc(-c2nc3nc(C)cc(C)n3n2)cc1` was tested. Which Potency did it give?
Answer: The Potency was “inactive”.

Question: `CCc1nnc(NC(=O)c2cc(-c3ccc(C)o3)nc3ccccc23)s1` was tested. Which Potency did it give?
Answer: The Potency was inconclusive: 20 µM [inhibitor, partial curve, poor fit].

Source: PubChem BioAssay AID624173 (National Center for Advancing Translational Sciences (NCATS), 2012)
